Data as given in the supplement of paper PMC3334620.
Whole data set: some 33,000 sequences, median “E-score (-0.5 to 0.5)” near -0.012, cut for the highest 2% near 0.29. This is one part of the list.

target: T1, Ybr033w (UniProt P38073); experiment: PBM E-score (8-mer binding enrichment) (E-score (-0.5 to 0.5)); higher = stronger / more preferred TF binding; most listed sequences are background and not binding sites; settings: protein concentration: 200 nM; construct: GST-full length
T1 sequence: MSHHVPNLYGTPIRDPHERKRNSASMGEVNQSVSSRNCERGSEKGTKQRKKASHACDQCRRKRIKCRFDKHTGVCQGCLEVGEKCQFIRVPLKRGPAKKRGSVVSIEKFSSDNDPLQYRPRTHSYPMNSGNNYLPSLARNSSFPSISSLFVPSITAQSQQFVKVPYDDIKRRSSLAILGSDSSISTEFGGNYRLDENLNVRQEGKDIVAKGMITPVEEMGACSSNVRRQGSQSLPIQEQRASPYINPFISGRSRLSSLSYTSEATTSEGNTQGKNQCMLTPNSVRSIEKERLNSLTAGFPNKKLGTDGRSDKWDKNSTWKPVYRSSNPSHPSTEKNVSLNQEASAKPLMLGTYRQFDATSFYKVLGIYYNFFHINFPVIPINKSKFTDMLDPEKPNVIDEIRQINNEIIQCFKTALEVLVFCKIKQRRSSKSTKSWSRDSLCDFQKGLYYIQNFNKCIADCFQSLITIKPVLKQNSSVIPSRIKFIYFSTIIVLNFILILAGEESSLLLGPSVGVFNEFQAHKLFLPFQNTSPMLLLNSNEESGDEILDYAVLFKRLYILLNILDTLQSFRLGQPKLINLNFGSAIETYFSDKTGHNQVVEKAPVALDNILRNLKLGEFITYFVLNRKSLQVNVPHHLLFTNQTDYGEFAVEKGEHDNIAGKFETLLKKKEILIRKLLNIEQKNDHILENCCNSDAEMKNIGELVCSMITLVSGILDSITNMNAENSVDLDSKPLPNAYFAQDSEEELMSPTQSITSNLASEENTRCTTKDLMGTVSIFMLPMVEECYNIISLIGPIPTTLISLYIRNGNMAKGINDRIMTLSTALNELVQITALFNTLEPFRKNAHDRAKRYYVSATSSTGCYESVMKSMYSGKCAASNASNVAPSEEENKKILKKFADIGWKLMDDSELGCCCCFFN
Procedure: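 Universal 'all 10-mer' protein binding microarrays (Agilent AMADID 015681) probed with GST-tagged S. cerevisiae TFs (full-length or DBD) made by in vitro transcription/translation (PURExpress), about 100-200 nM. Bound TF was detected with fluorescent anti-GST. Each ungapped 8-mer (which stands for itself and its reverse complement) is scored by the PBM enrichment score (E-score), a modified Wilcoxon-Mann-Whitney statistic from -0.5 to +0.5, computed with the Universal PBM Analysis Suite. Scale: above 0.35 generally sequence-specific binding.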

First: CCGAGTGC
Second: CCCTTACA
The “PBM E-score” value of the first is lower: -0.00553 for the first, 0.0257 for the second.

First: CGTATACA
Second: CACGAATC
The “PBM E-score” value of the first is higher: 0.168 for the first, 0.137 for the second.

Going from ATCGTTCG to GAGCCCTA, the “PBM E-score” value falls from -0.0743 to -0.201.

First: ATTAGTAA
Second: GTTCTTGA
The “PBM E-score” value of the first is higher: 0.253 for the first, 0.0638 for the second.

Going from GCGTCGAC to CATCCATC, the “PBM E-score” value falls from -0.0133 to -0.106.

First: CTACATTC
Second: GCCCGTCA
The “PBM E-score” value of the first is higher: 0.0884 for the first, -0.327 for the second.

Compared with GGAAAACC, CTATTCCC is higher in “PBM E-score” value: -0.11 for the first, -0.043 for the second.

Compared with ATTGGGAA, GCGGCCCA is lower in “PBM E-score” value: 0.198 for the first, -0.23 for the second.

Going from GACGTTCA to TGCTTTAA, the “PBM E-score” value rises from -0.23 to 0.107.

First: CAGCGCGC
Second: AACGACTC
The “PBM E-score” value of the first is higher: 0.0278 for the first, -0.219 for the second.

First: ACCGGCAG
Second: CTGGAAAC
The “PBM E-score” value of the first is lower: -0.338 for the first, -0.0702 for the second.

Going from GCTACACA to AATGAATC, the “PBM E-score” value rises from -0.191 to 0.0507.

Going from CATGAGTC to TAGAGCCA, the “PBM E-score” value falls from 0.0171 to -0.174.

Compared with CACTTCTG, GCTACGAC is lower in “PBM E-score” value: 0.0004 for the first, -0.267 for the second.

Going from AGCTGCTA to CACTAATC, the “PBM E-score” value rises from 0.11 to 0.167.

First: CATTTTTA
Second: GAGAATCA
The “PBM E-score” value of the first is higher: 0.0686 for the first, 0.0617 for the second.

First: TATCCGCA
Second: GATGTCAA
The “PBM E-score” value of the first is higher: 0.306 for the first, 0.0645 for the second.

First: CATGGGGA
Second: ATTCCAGA
The “PBM E-score” value of the first is lower: -0.0852 for the first, 0.186 for the second.

First: AGTGCGGG
Second: CATGCTCC
The “PBM E-score” value of the first is higher: -0.0831 for the first, -0.365 for the second.

First: AGTACTAG
Second: TGGAAAAA
The “PBM E-score” value of the first is lower: 0.113 for the first, 0.458 for the second.

Going from CGACCAAG to AGAACAGA, the “PBM E-score” value rises from -0.0195 to 0.0876.

Going from CTTTTGAC to CTCTTCAG, the “PBM E-score” value falls from 0.0689 to -0.0572.

First: GAAGTGGC
Second: CGTTTGTA
The “PBM E-score” value of the first is lower: -0.0921 for the first, 0.167 for the second.

First: GCCGTTTA
Second: CCTACGGA
The “PBM E-score” value of the first is higher: 0.0411 for the first, -0.0441 for the second.

First: CCGACATC
Second: ATGTTCAC
The “PBM E-score” value of the first is higher: 0.00453 for the first, -0.063 for the second.

Compared with AGGCGCTG, AGACCTCC is lower in “PBM E-score” value: 0.0389 for the first, -0.374 for the second.

Going from CAAGCATC to ATCTGGTA, the “PBM E-score” value rises from -0.0369 to 0.0021.

Compared with GTAAGTTA, ACGTACGC is lower in “PBM E-score” value: 0.0848 for the first, -0.0919 for the second.

Going from CGTTATTA to ACAAGGAC, the “PBM E-score” value falls from 0.149 to -0.161.

First: CTCGTCTC
Second: AGGGAATA
The “PBM E-score” value of the first is lower: -0.049 for the first, 0.248 for the second.

First: ATGCATGG
Second: TATATATA
The “PBM E-score” value of the first is lower: -0.0101 for the first, 0.28 for the second.

Going from CACGATCG to AATGGGAC, the “PBM E-score” value falls from -0.0361 to -0.234.

Compared with CAGGTGCA, GTGAGCAC is lower in “PBM E-score” value: -0.066 for the first, -0.0679 for the second.

Going from CAAATCGG to CAACATAA, the “PBM E-score” value rises from -0.0226 to 0.262.

Compared with AGCGCCCC, CTTTGTTA is higher in “PBM E-score” value: -0.365 for the first, 0.264 for the second.

First: CACGCTCG
Second: AGTGCAAA
The “PBM E-score” value of the first is lower: -0.105 for the first, 0.162 for the second.

Compared with ACCCGTCA, CGGGACCC is lower in “PBM E-score” value: -0.184 for the first, -0.423 for the second.

Going from ATTATGAC to CTTGAGGA, the “PBM E-score” value falls from 0.168 to 0.0251.

Going from CGGTGAAC to CGATATAG, the “PBM E-score” value falls from 0.00975 to -0.00624.

Compared with ACGTCACA, CACGTCTG is lower in “PBM E-score” value: 0.0349 for the first, -0.0385 for the second.

First: CAGCTAGG
Second: GCGGAACA
The “PBM E-score” value of the first is lower: -0.231 for the first, 0.265 for the second.

Going from GGGCGACC to AAATACAC, the “PBM E-score” value rises from -0.291 to 0.232.

Going from CAACTGCA to CGATAAAA, the “PBM E-score” value rises from 0.103 to 0.14.

Going from ACCCTTAC to CCTCAGGC, the “PBM E-score” value falls from 0.0161 to -0.0814.

Compared with AACCTTGC, CTTTCAAC is higher in “PBM E-score” value: -0.00024 for the first, 0.0503 for the second.

Going from CGGACTCC to AGGGTTAG, the “PBM E-score” value rises from -0.0898 to 0.051.

First: ACATATGA
Second: GTCGTCCA
The “PBM E-score” value of the first is higher: 0.125 for the first, -0.0713 for the second.

Going from AAGACCGG to CCACCCCG, the “PBM E-score” value rises from -0.257 to -0.144.

First: CCTCAAAC
Second: AGGTCCGA
The “PBM E-score” value of the first is higher: -0.00888 for the first, -0.0667 for the second.

Compared with CTAGCTCC, ACTCTTCT is higher in “PBM E-score” value: -0.16 for the first, 0.0225 for the second.

Going from GAAGAGGA to AATGTCTC, the “PBM E-score” value rises from -0.251 to -0.00048.

Compared with ATTCTAAG, CCCTCCCC is lower in “PBM E-score” value: 0.0867 for the first, -0.135 for the second.

First: AACAATGA
Second: TCATTGCA
The “PBM E-score” value of the first is higher: 0.203 for the first, 0.0987 for the second.

Compared with AGAGTAAT, GAACTCGC is lower in “PBM E-score” value: 0.313 for the first, 0.0288 for the second.

Going from TCTCAACA to CCCGCGCC, the “PBM E-score” value falls from 0.0911 to -0.285.

First: AGTAGCCG
Second: ACTTCCAG
The “PBM E-score” value of the first is lower: -0.0299 for the first, 0.0745 for the second.

Going from AGAACGTA to AATTAGCG, the “PBM E-score” value rises from 0.0159 to 0.161.

Compared with CAATGCGA, CGCCCAAC is lower in “PBM E-score” value: 0.0751 for the first, -0.216 for the second.

Going from ACCGCTGG to AGGGACAG, the “PBM E-score” value falls from -0.0154 to -0.321.

Going from TTACCTAA to GGGCGTAC, the “PBM E-score” value falls from 0.156 to 0.00123.

Going from GAATATTA to CCAATGCG, the “PBM E-score” value falls from 0.315 to -0.0114.

First: CTGCGGTA
Second: ACCATTTA
The “PBM E-score” value of the first is lower: -0.0984 for the first, 0.204 for the second.

First: GTTGAAGA
Second: CAGGGATA
The “PBM E-score” value of the first is higher: 0.0264 for the first, -0.00813 for the second.

Going from TTCACAAA to GACCAAGA, the “PBM E-score” value falls from 0.187 to 0.0606.

Going from CAGACGTA to AAACCGCC, the “PBM E-score” value rises from -0.115 to 0.0737.

Compared with CCCAGCTA, GCTCATCC is higher in “PBM E-score” value: -0.165 for the first, -0.0162 for the second.

First: ACGCCCCC
Second: CGCACGTA
The “PBM E-score” value of the first is lower: -0.229 for the first, -0.174 for the second.

Compared with GAGATTGA, ACCTGGAA is higher in “PBM E-score” value: 0.0919 for the first, 0.243 for the second.

Going from ATGCCGCA to CATTCCCA, the “PBM E-score” value falls from 0.0927 to 0.0691.

Going from AGACGACA to ATATCTGA, the “PBM E-score” value rises from 0.119 to 0.122.

Going from ACCATAAG to GAGGCAAC, the “PBM E-score” value falls from -0.0119 to -0.151.

Compared with ACGTCCAA, GTTGGTAA is higher in “PBM E-score” value: -0.00884 for the first, 0.176 for the second.

Going from CGCTGCTA to TCCACCGA, the “PBM E-score” value rises from -0.126 to 0.00065.

First: AAGGGATG
Second: CGTGGAGA
The “PBM E-score” value of the first is higher: -0.0361 for the first, -0.15 for the second.

Going from ATGAGCGG to GGCTTAAC, the “PBM E-score” value rises from -0.151 to -0.00155.

Compared with ACGATTCG, CCCAGGTA is lower in “PBM E-score” value: 0.0605 for the first, -0.225 for the second.

First: CAATGGGC
Second: CCCCTCGA
The “PBM E-score” value of the first is lower: -0.139 for the first, -0.0714 for the second.

Going from GCTTATAC to TCTGGAAA, the “PBM E-score” value rises from -0.0477 to 0.259.

Going from AGAGAGTA to AGTGCCTC, the “PBM E-score” value falls from 0.00534 to -0.312.

Compared with CGCGATAG, ATCGTACG is lower in “PBM E-score” value: 0.0293 for the first, -0.0517 for the second.

Going from AACAGCCC to GAGAACTC, the “PBM E-score” value rises from -0.165 to -0.0547.

Going from AAACGCAC to GACACTAA, the “PBM E-score” value falls from -0.0177 to -0.036.

Compared with AAGATCAA, ATCTATGC is lower in “PBM E-score” value: 0.26 for the first, 0.22 for the second.

First: TCTCGTCA
Second: CCGACTAA
The “PBM E-score” value of the first is higher: 0.0524 for the first, -0.0217 for the second.

First: GATCTCAC
Second: AATTAATC
The “PBM E-score” value of the first is lower: 0.00113 for the first, 0.341 for the second.

Compared with GTTGCAAA, AATAGCCA is lower in “PBM E-score” value: 0.231 for the first, 0.0895 for the second.
